The list shows a part of the results. Many values rest on one well or one pass, so single values are uncertain.
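Also: cell number obtained by counting DAPI-stained nuclei in high-throughput microscope images with image analysis software, screen run in 1,536-well plates.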

This assay has as its system G361. Nature of the assay: cell count relative to DMSO control; melanoma cells; higher = more viable cells. The settings on record: library dose: low library concentration; 72 h.
With `Nc1ccn([C@@H]2O[C@H](CO)[C@@H](O)C2(F)F)c(=O)n1` [gemcitabine] + Oc1nc(-c2ccc(C(F)(F)F)cc2)nc2c1CSCC2 [XAV939] (first compound 0.0004 µM, partner dose 2 µM), the cell count amounted to 78.3%. To `Nc1ccn([C@@H]2O[C@H](CO)[C@@H](O)C2(F)F)c(=O)n1` [gemcitabine] + COc1ccc2c(c1)CCC1C2CCC2(C)C(NCCCCCCN3C(=O)C=CC3=O)CCC12 [U73122] (first compound 0.0004 µM, partner dose 0.4 µM) belongs 92.1%; to `CC(=O)c1c(C)c2cnc(Nc3ccc(N4CCNCC4)cn3)nc2n(C2CCCC2)c1=O` [palbociclib] + O=c1cc(-c2cccc3c2Sc2ccccc2S3)oc(N2CCOCC2)c1 [KU55933] (first compound 0.04 µM, partner dose 1 µM), 69.1%. In turn, `CC(=O)c1c(C)c2cnc(Nc3ccc(N4CCNCC4)cn3)nc2n(C2CCCC2)c1=O` [palbociclib] + Cc1cc([N+](=O)[O-])ccc1NS(=O)(=O)c1cc(Cl)ccc1Cl [FH535] (first compound 0.04 µM, partner dose 1 µM) had a cell count of 76.6%. The compound `Nc1ncn([C@H]2C[C@H](O)[C@@H](CO)O2)c(=O)n1` [decitabine] + CCCCCCCCCCCC1=C(O)C(=O)C=C(O)C1=O [Embelin] (first compound 0.1 µM, partner dose 1.2 µM) displayed a cell count of 84.2%.

For the compound `Nc1ccn([C@@H]2O[C@H](CO)[C@@H](O)C2(F)F)c(=O)n1` [gemcitabine] + CCCCCCCCCCCC1=C(O)C(=O)C=C(O)C1=O [Embelin] (first compound 0.0004 µM, partner dose 1.2 µM), the cell count was found to be 97%. Next, `Nc1nc(F)nc2c1ncn2[C@@H]1O[C@H](CO)[C@@H](O)[C@@H]1O` [fludarabine] + CC(C)CCN1c2nc(Nc3cc(F)c(O)c(F)c3)ncc2N(C)C(=O)C1C [BID1870] (first compound 0.2 µM, partner dose 0.2 µM): 96.7%; `CO[C@H]1C[C@@H]2CC[C@@H](C)[C@@](O)(O2)C(=O)C(=O)N2CCCC[C@H]2C(=O)O[C@H]([C@H](C)C[C@@H]2CC[C@@H](OCCO)[C@H](OC)C2)CC(=O)[C@H](C)/C=C(\C)[C@@H](O)[C@@H](OC)C(=O)[C@H](C)C[C@H](C)/C=C/C=C/C=C/1C` [everolimus] + COc1ccc(-c2ccc3c(N4CCOCC4)nc(N4C[C@@H](C)O[C@@H](C)C4)nc3n2)cc1CO [KU0063794] (first compound 0.02 µM, partner dose 0.02 µM): 63.7%. To `CC(=O)O[C@@]12CO[C@@H]1C[C@H](O)[C@@]1(C)C(=O)[C@H](O)C3=C(C)[C@@H](OC(=O)[C@H](O)[C@@H](NC(=O)OC(C)(C)C)c4ccccc4)C[C@@](O)([C@@H](OC(=O)c4ccccc4)[C@H]21)C3(C)C` [Docetaxel] + CCN(CC)CCCCNc1ncc2cc(-c3cc(OC)cc(OC)c3)c(NC(=O)NC(C)(C)C)nc2n1 [PD173074] (first compound 0.0001 µM, partner dose 0.1 µM) belongs 27.6%; to `Nc1nc(F)nc2c1ncn2[C@@H]1O[C@H](CO)[C@@H](O)[C@@H]1O` [fludarabine] + CN(NC(=O)CC(=O)NN(C)C(=S)c1ccccc1)C(=S)c1ccccc1 [STA4783] (first compound 0.2 µM, partner dose 0.006 µM), 86.3%. In turn, `Nc1ncn([C@H]2C[C@H](O)[C@@H](CO)O2)c(=O)n1` [decitabine] + c1cc(-c2cnn3cc(-c4ccc(OCCN5CCCCC5)cc4)cnc23)ccn1 [Dorsomorphin] (first compound 0.1 µM, partner dose 0.4 µM) came in with a cell count of 98.1%. With `CC(=O)c1c(C)c2cnc(Nc3ccc(N4CCNCC4)cn3)nc2n(C2CCCC2)c1=O` [palbociclib] + COc1cc(N2CCC(N3CCN(C)CC3)CC2)ccc1Nc1ncc(Cl)c(Nc2ccccc2S(=O)(=O)C(C)C)n1 [NVP-TAE684] (first compound 0.04 µM, partner dose 0.08 µM), the cell count was determined as 77.2%.

For `CC(=O)O[C@@]12CO[C@@H]1C[C@H](O)[C@@]1(C)C(=O)[C@H](O)C3=C(C)[C@@H](OC(=O)[C@H](O)[C@@H](NC(=O)OC(C)(C)C)c4ccccc4)C[C@@](O)([C@@H](OC(=O)c4ccccc4)[C@H]21)C3(C)C` [Docetaxel] + CCCCCCCCCCCC1=C(O)C(=O)C=C(O)C1=O [Embelin] (first compound 0.0001 µM, partner dose 1.2 µM), the cell count stood at 21.2%. `Nc1nc(F)nc2c1ncn2[C@@H]1O[C@H](CO)[C@@H](O)[C@@H]1O` [fludarabine] + NCC(=O)Nc1ccc(-n2nc(C(F)(F)F)cc2-c2ccc3c(ccc4ccccc43)c2)cc1 [OSU03012] (first compound 0.2 µM, partner dose 1 µM) had a cell count of 97.5%. `Nc1ccn([C@@H]2O[C@H](CO)[C@@H](O)C2(F)F)c(=O)n1` [gemcitabine] + COc1cc(Nc2ncc(F)c(Nc3ccc4c(n3)NC(=O)C(C)(C)O4)n2)cc(OC)c1OC [Tamatinib] (first compound 0.0004 µM, partner dose 0.4 µM) had a cell count of 95.2%. For the compound `Nc1nc(F)nc2c1ncn2[C@@H]1O[C@H](CO)[C@@H](O)[C@@H]1O` [fludarabine] + COc1cc(N2CCC(N3CCN(C)CC3)CC2)ccc1Nc1ncc(Cl)c(Nc2ccccc2S(=O)(=O)C(C)C)n1 [NVP-TAE684] (first compound 0.2 µM, partner dose 0.08 µM), the cell count was 94.2%. To `Nc1ncn([C@H]2C[C@H](O)[C@@H](CO)O2)c(=O)n1` [decitabine] + COc1cc(Nc2ncc(F)c(Nc3ccc4c(n3)NC(=O)C(C)(C)O4)n2)cc(OC)c1OC [Tamatinib] (first compound 0.1 µM, partner dose 0.4 µM) belongs 90.9%; to `Nc1ccn([C@@H]2O[C@H](CO)[C@@H](O)C2(F)F)c(=O)n1` [gemcitabine] + Cc1ccc(NC(=O)c2cccc(N(C)C)c2)cc1NC(=O)c1ccc(O)cc1 [ZM336372] (first compound 0.0004 µM, partner dose 2 µM), 115%. Next, `Nc1ncn([C@H]2C[C@H](O)[C@@H](CO)O2)c(=O)n1` [decitabine] + NCC(=O)Nc1ccc(-n2nc(C(F)(F)F)cc2-c2ccc3c(ccc4ccccc43)c2)cc1 [OSU03012] (first compound 0.1 µM, partner dose 1 µM): 89.6%.

(Values after the supplement of paper PMC4604168 (melanoma cell lines).)
